In a collection of fitness landscapes (doi:10.1126/science.1257360):
The other results are listed elsewhere or left out.

B1: PhoQ; a variant is named by its letters at X, in order, P23837 (parent)
chain: MKKLLRLFFPLSLRVRFLLATAAVVLVLSLAYGMVALIGYSVSFDKTTFRLLRGESNLFYTLAKWENNKLHVELPENIDKQSPTMTLIYDENGQLLWAQRDVPWLMKMIQPDWLKSNGFHEIEADVNDTSLLLSGDHSIQQQLQEVREDDDDAEMTHSVAVNVYPATSRMPKLTIVVVDTIPVELKSSYMVWSWFIYVLSANLLLVIPLLWVAAWWSLRPIEALAKEVRELEEHNRELLNPATTRELTSLVRNLNRLLKSERERYDKYRTTLTDLTHSLKTPLXXLQXXLRSLRSEKMSVSDAEPVMLEQISRISQQIGYYLHRASMRGGTLLSRELHPVAPLLDNLTSALNKVYQRKGVNISLDISPEISFVGEQNDFVEVMGNVLDNACKYCLEFVEISARQTDEHLYIVVEDDGPGIPLSKREVIFDRGQRVDTLRPGQGVGLAVAREITEQYEGKIVAGESMLGGARMEVIFGRQHSAPKDE

Variants of: B1
Assay: enrichment ratio after two sorts for PhoP signalling (ratio (wild type AVST 3.29)); higher = more functional
Settings: with PhoP (E. coli)

Variant | enrichment ratio
RWDY | ≤ 0.25
SHLI | 10.2
HWIE | ≤ 0.25
HNGE | ≤ 0.25
HPQG | ≤ 0.25
YENR | ≤ 0.25
IANH | ≤ 0.25
LTEQ | ≤ 0.25
NCPC | ≤ 0.25
WPDP | ≤ 0.25
GWPH | ≤ 0.25
MMPK | ≤ 0.25
TVFD | ≤ 0.25
HCAL | ≤ 0.25
GIDP | ≤ 0.25
ATFI | ≤ 0.25
DIMW | ≤ 0.25
AEII | 16.4
VIDV | ≤ 0.25
PNIG | ≤ 0.25
HWGR | ≤ 0.25
YYSK | ≤ 0.25
FNIC | ≤ 0.25
IERP | ≤ 0.25
QQSK | ≤ 0.25
NSQP | ≤ 0.25

Variant | enrichment ratio
YWGK | ≤ 0.25
STHR | ≤ 0.25
YTLF | 6.76
VVCI | ≤ 0.25
LQPA | ≤ 0.25
RGHC | ≤ 0.25
SWAI | ≤ 0.25
KTHG | ≤ 0.25
NRRS | ≤ 0.25
LFIP | ≤ 0.25
PELE | ≤ 0.25
CFGL | ≤ 0.25
IPRI | ≤ 0.25
QCHF | ≤ 0.25
WCRF | ≤ 0.25
LMQH | ≤ 0.25
GNHN | ≤ 0.25
HKHG | ≤ 0.25
SMWD | ≤ 0.25
GRYI | ≤ 0.25
KRNT | ≤ 0.25
WDRH | ≤ 0.25
AQCF | 10.6
YKAE | ≤ 0.25
QRYE | ≤ 0.25
VWAC | ≤ 0.25

Variant | enrichment ratio
KPHM | ≤ 0.25
YHDN | ≤ 0.25
CFLG | ≤ 0.25
RLKV | 0.555
RNAC | ≤ 0.25
ADRT | ≤ 0.25
TYTL | 15.2
ELVI | ≤ 0.25
KFRF | ≤ 0.25
HCCG | ≤ 0.25
KDPG | ≤ 0.25
KHFD | ≤ 0.25
DQFT | ≤ 0.25
PHAQ | ≤ 0.25
STGP | ≤ 0.25
SGAG | 8.48
KQYW | ≤ 0.25
DRDD | ≤ 0.25
HSYM | ≤ 0.25
RLWS | ≤ 0.25
DELV | ≤ 0.25
FVRF | ≤ 0.25
VVLW | ≤ 0.25
VMAH | ≤ 0.25
AHHP | ≤ 0.25
